Data as given in the supplement of paper PMC11417369.
This is one part of the list.

system: PfSIP2 AP2 domain 1 (GST-tagged); assay: gcPBM binding intensity (ln(normalized median fluorescence intensity)); higher = stronger DNA binding
Procedure, shortened: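 The binding buffer was 1× PBS containing 1% milk, 0.2 mg/ml BSA, 0.5% salmon testes DNA and 0.03% Triton X-100. In it, GST-tagged P. falciparum DNA-binding domains expressed in E. coli were applied for 1 h to an Agilent 4 × 180k array of primer-extended double-stranded 36-bp intergenic genomic probes plus negative controls. Binding intensity, read with Alexa488 anti-GST antibody and a 488 nm scan, is the highest Masliner-normalised natural-log median intensity across replicate spots of either probe orientation.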

Row | Sequence | gcPBM binding intensity (ln)
1 | AAAAATAATGCACATATATATAATATGTATATGTAT [CACACA_negctrl_site443] | 7.22
2 | TTTTAAACAAGACACACACACATATATATATATATA [CACACA_site925] | 9.63
3 | TTATTGTAAATATATGCATGTGCAAAATGAAAAAAA [TGCATGCA_site399] | 7.97
4 | ATGTTTACATATTAGGGTACATAATAAATTGCATAT [XGTACX_site6712] | 6.99
5 | CATGTATTTTATATTACACACTAATATTATATATAT [CACACA_site1508] | 7.51
6 | GAATGTATAAAATGAACACACGCCAAATTAAATGAA [CACACA_site3044] | 6.9
7 | AATAAACAAATATGTACACACATATACCTATAAATA [CACACA_site7358] | 7.03
8 | CCAACATATATTATCACACACATATATATATATATA [CACACA_site2016] | 9.6
9 | ATATTAGATTAATTTACACACAGAAAATGAGATTTT [CACACA_site541] | 6.72
10 | TAGAGTATATATAAATGTACATATTTTATGCTAATT [XGTACX_site7821] | 7.14
11 | AAAAAATTAAATAATTACAAAAAAATAAAATAAAAA [GTGCAC_negctrl_site638] | 6.54
12 | TTATATATTAATAGTAGTACTATATTGAATCACCCC [XGTACX_site2868] | 7.46
13 | AGTTTATAGTGATATTGTACATATATATATATATAT [XGTACX_site572] | 9.24
14 | TTATTTTTGTTTTGAAGTACAAAAAAATATATTCTT [XGTACX_site6416] | 7.01
15 | AAAATTTATATAAGCACACAAATATATATTTATATC [CACACA_site3291] | 6.84
16 | TATTTATACTCAACTTTCTGTTATTCCAACTTTTTT [XGTACX_negctrl_site410] | 6.87
17 | ACATAAGAACATATTTGTACGTATATAAATTAAATA [XGTACX_site6127] | 7.09
18 | ACAACAAAAATAAGCACACACAAATATACATACATA [CACACA_site7664] | 7.18
19 | ATATATATATATGTGTGTACATATATGTGGATGGAT [XGTACX_site6240] | 9.23
20 | AGGTAGAAAAAAGACACACACATTATGTATATATAT [CACACA_site377] | 7.6
21 | TTATAGGATCAAGCGCGTACATATCTTTATAAAAGA [XGTACX_site5775] | 6.83
22 | ATATACAAATATATATATATATATATATATATATAT [CACACA_negctrl_site886] | 9.65

Row | Sequence | gcPBM binding intensity (ln)
23 | TATTTCTTTATTGGCACACATTTTTTCAATTATATA [CACACA_site4975] | 7.32
24 | GCAAATATGTTGATATGTACATATATATATATATAT [XGTACX_site445] | 9.06
25 | ATTATTTTAATAAAACGTACAAAATATAAATCAAAA [XGTACX_site3770] | 7.3
26 | AAAAAATATACATATACACACATATGTATATATAAT [CACACA_site8676] | 7.01
27 | AATAACAAAATATTAACACACATAACATATTATAAA [CACACA_site2803] | 6.85
28 | TTTTTTCATATAAATACATGCACACAAAAATATCAA [TGCATGCA_site602] | 8.63
29 | TAATGTTTTTTTTGTTTACCAAAAATAATACATTAT [CACACA_negctrl_site203] | 6.96
30 | AGTAGATATAATTATAGTACTTTGATGTTTTCTTTA [XGTACX_site5038] | 6.82
31 | TTTTTTTTTAGAAAAACATGCATGTCCTAAAAATAA [TGCATGCA_site684] | 7.21
32 | TGGCAAAATAGGCACACACACATATACATCTATATT [CACACA_site6626] | 7.11
33 | ATATGATAAATTATATGTACTTAAAATATATTATAA [XGTACX_site5904] | 6.92
34 | AAAAAAAAAAAAAAAAAAAAAAAAACAATGAATTTA [GTGCAC_negctrl_site698] | 8.68
35 | TTTTTCTATATTTTCTTTTATAAAATATATAATTTT [GTGCAC_negctrl_site345] | 6.76
36 | GTCATATATTATAATAGTACATAAATAATTGATGCC [XGTACX_site3567] | 7.1
37 | ATAGTTATTTTATAGCGTACACAATAAATATATAAA [XGTACX_site4445] | 7.23
38 | CACAGAAATAGAGATACACACACACCGATATTTATG [CACACA_site9313] | 6.84
39 | ATGTATTTATTATTTAGTACACATTATTTTCTTATA [XGTACX_site6365] | 7.05
40 | AAATTTTCTTTTAAGTGTACGAAATTTAGTATTTCA [XGTACX_site7819] | 6.74
41 | TAAACAGTATGCAACGCATGCGTTGTTATATATAAA [TGCATGCA_site232] | 6.73
42 | ATTTTTTTTTTTTTTTTTTTATTCTTAATTCATATA [CACACA_negctrl_site342] | 6.66
43 | TTTTTGTTTGTTCACGACTACATTATGTCATAAATG [CACACA_negctrl_site597] | 7.07
44 | TATATATAAATATATACACACATGAAAATAAATAAA [CACACA_site2514] | 6.98

Row | Sequence | gcPBM binding intensity (ln)
45 | ATCTATGTTCCTTTTACACACATAATCTTTTTTTTA [CACACA_site5468] | 7.35
46 | ATATATATATATTATACACACAAAAATATTTTGTAT [CACACA_site266] | 9.09
47 | CGTGGGAGCAGACACACACACACACGCATATTTATA [CACACA_site6290] | 6.85
48 | ATGGACAAAAAATATATACACACGAGGAAACCAACA [CACACA_site3726] | 7.2
49 | TTTTGTTTTTACGAATACTTTTTTAATTTTATTTAT [TGCATGCA_negctrl_site395] | 6.67
50 | CATGCATACTACATCTGTACACATACATTATATTTA [XGTACX_site2495] | 7.14
51 | GTAAATTATATAACAAATAAAAATGTACATATATAT [CACACA_negctrl_site408] | 7.4
52 | TATACTTTATATATTTTGTATATATATTTTTTTTAT [TGCATGCA_negctrl_site530] | 7
53 | AATAAAAAGTAATAATAACGTATAATTTATTATACT [TGCATGCA_negctrl_site414] | 6.68
54 | TCTTGTTATTTAAATGCATGTTGATTTTAAAAAATT [TGCATGCA_site840] | 7.18
55 | ATATATATAGATTGTACACACATTTATGCATATATA [CACACA_site3222] | 7.79
56 | ATAACATTCTATGTTGCACACAAAGAGAAAAATTTA [CACACA_site9322] | 6.94
57 | ACGCAATATTAACAAGTGCATTATAACACATAACAT | 8.22
58 | TTTATAATTTATATCACACATATATCTGTAATAAAT [CACACA_site5048] | 6.94
59 | ATCTCTGTAAAGATCACACATATATTTTTGTTATAT [CACACA_site5094] | 6.84
60 | TATATATTATATATATGTACATATTGTTGTGTATAT [XGTACX_site767] | 7.32
61 | CATATATGTTATATTTAACACACATATAAGGTACAT [CACACA_site8105] | 7.14
62 | CAGCTCTTAAAAATTACACACATATACACATATATA [CACACA_site9073] | 6.94
63 | TTATTACACACATATGTGCACATATAAAAGTACACG [GTGCAC_site9581] | 8.7
64 | TTTCTAGTTACAAGAGTGCATAATATATAAAAATAA [GTGCAC_site9874] | 9.76
65 | TATAAATACAATTCACAAGAGATCATGTATCAAACC [CACACA_negctrl_site1219] | 6.8
66 | TATATATATATATATACACACATTTTTAATGATAAA [CACACA_site2695] | 9.29

Row | Sequence | gcPBM binding intensity (ln)
67 | ATATAATAAATATGTTGTACTATAAAAAATAGCCAT [XGTACX_site4710] | 7.01
68 | ACTAATTACTATAAAACACACATATATATATATATA [CACACA_site2591] | 9.68
69 | TTAGTCGAATGATGTACACACATACAAAACATTTAT [CACACA_site6076] | 7.06
70 | AGAAAATATTTTGGTTGTACAGGCGATTTATATGTT [XGTACX_site7253] | 7.15
71 | AAAAAAAAAAAAAAAAAAAAAAAAAAAAGAAAAAAG [GTGCAC_negctrl_site583] | 8.76
72 | TTATATTTTCAGAATAGTACACATATATACATATAT [XGTACX_site2519] | 7.08
73 | AAAAATTCTTGGCGCACACACTTTAAAAATTAAAAA [CACACA_site4498] | 7.32
74 | GATCATTTAAAATAAGTAATATTTTTTTTACTTTTG [TGCATGCA_negctrl_site602] | 6.64
75 | TTATAAAAGAAAAAAAAAAAAAAAAAAAAAAAAAAA [CACACA_negctrl_site1006] | 7.01
76 | TTTAGCCAATTTTTAAAGTTTAAAAAAGAAAAAAGA [CACACA_negctrl_site118] | 6.8
77 | TATTAAAAATACATATGTACTCATAGCATAAAACAT [XGTACX_site8686] | 7.1
78 | TGTGAAAATTATGGGGCATGCAATACTTTAAAAATA [TGCATGCA_site653] | 7.02
79 | CAAATGTAGAAAATGTGTACATAAAAAAAAAAAAAA [XGTACX_site8276] | 7.16
80 | AGTCAATTTTGTGTGTCAACATTTATATAAAGAATG [TGCATGCA_negctrl_site400] | 7.09
81 | TTTTGGCTGATCAGATTTAACAAAAAAAAAAAAAAA [CACACA_negctrl_site671] | 7.45
82 | CCTTCAATTTACATAACACACATTTAACCATAATAA [CACACA_site2394] | 7.33
83 | CAAATATATATTTTCTGTACAAATACAATTAATACT [XGTACX_site2694] | 6.95
84 | TTCCAAAATTGCATTTGTACCCAAAAAATGTATACG [XGTACX_site7680] | 6.94
85 | GTAAGTTTGAATACACGTACAAATTTATTAAAGTCC [XGTACX_site6722] | 7.25
86 | AGATATTAAAACGTTACACACATTTATATATCTTCT [CACACA_site908] | 6.75
87 | ATCAGTCGGCAGGACAGTACACAGTAGCCAGGAAAT [XGTACX_site2003] | 6.75
